According to patent publication US20050106730A1, “Compositions and methods utilizing stable reporter cell lines for detection of pathway-specific signal transduction” (priority 1999, published 2005):

Test system: MAPK pathway converging on Elk1 (GAL4-Elk1 fusion)
Assay: Luciferase reporter assay in RCLH-Elk1 stable reporter cells treated with extracellular stimuli
Conditions: screening for activators

Row | Structure (SMILES) | Activator of MAPK pathways leading to Elk1 activation (luciferase expression, FIG. 10)
1 | CCCCCCCCCCCCCC(=O)O[C@@H]1[C@@H](C)[C@@]2(O)[C@@H](C=C(CO)C[C@]3(O)C(=O)C(C)=C[C@@H]23)[C@@H]2C(C)(C)[C@]12OC(C)=O [PMA, phorbol 12-myristate 13-acetate] | activators
2 | COc1ccc(C[C@H]2NC[C@H](O)[C@H]2OC(C)=O)cc1 [anisomycin] | are not
